# Data from PubChem BioAssay AID602310 (National Center for Advancing Translational Sciences (NCATS), 2012).
# Several values for one entry are separate records, joined by “and”; a condition that tells them apart may be missing. Identical values can stand only once. In all, about 410,000 compounds went through this assay and about 310 (0.076%) were called active. The inconclusive results got no clear call from the source; some entries with a clear call stand among them for comparison. Calls follow the shape of the dose curve; as a rule, active = well fitted curve in the direction sought with a large enough effect; inconclusive = small, poorly fitted or top-dose-only effect; inactive = flat fitted curve, though single readings scatter. Where the call is inconclusive, the potency comes from a doubtful curve fit.
# Target: DNA dC->dU-editing enzyme APOBEC-3G (Homo sapiens) (UniProt Q9HC16)
# Test: qHTS for Inhibitors of Vif-A3G Interactions: qHTS; also: nearly all actives have a fitted effect of over 60% in size;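 as to activity, negative = active: hits raise eYFP signal because A3G escapes Vif-driven loss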
# Details: HeLa A3G-eYFP + Vif (tagged APOBEC3G with the HIV-1 protein that degrades it), YFP fluorescence, overnight; series mostly up to 46.1 µM; activity, negative = active: at the top concentration
# Method in brief: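 Read-out is eYFP fluorescence (Ex 488/Em 500-530) from Vif-expressing HeLa A3G-eYFP cells; more signal means A3G escaped Vif-mediated degradation. Cells plated overnight, compound pinned in, incubated overnight at 37 deg C.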
# % is scaled to controls: 0 for no effect and ±100 for the full control effect; potency is read from the fitted curve at half-maximal effect.
# UniProt Q9HC16, sequence (Q9HC16 whole entry, looked up): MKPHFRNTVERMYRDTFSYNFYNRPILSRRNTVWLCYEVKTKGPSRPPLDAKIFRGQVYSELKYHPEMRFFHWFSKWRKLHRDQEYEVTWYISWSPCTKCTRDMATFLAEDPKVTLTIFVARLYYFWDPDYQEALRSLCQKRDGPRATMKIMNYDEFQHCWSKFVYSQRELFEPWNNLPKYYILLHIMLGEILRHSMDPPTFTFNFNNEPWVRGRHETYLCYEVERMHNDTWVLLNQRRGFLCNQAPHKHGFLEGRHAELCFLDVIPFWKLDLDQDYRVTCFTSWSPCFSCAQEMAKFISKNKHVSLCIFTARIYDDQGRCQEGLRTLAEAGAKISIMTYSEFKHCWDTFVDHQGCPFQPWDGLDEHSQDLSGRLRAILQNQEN
Structure (SMILES),Potency,"activity, negative = active"
C=C1C(=O)O[C@@H]2C[C@@H](C)[C@@H]3C=CC(=O)[C@@]3(C)[C@@H](OC(C)=O)[C@H]12,"inconclusive: 2 µM [inhibitor, partial curve, poor fit]",
O=C(O)c1ccc(N=Nc2c(O)[nH]c3cc(Cl)ccc23)cc1,"inconclusive: 22.4 µM [inhibitor, single point]",
COc1ccc(C(C(=O)NC2CCCC2)N(Cc2ccccc2)C(=O)c2nsc(Cl)c2Cl)cc1 (centres undefined),,inactive: -0.232%
O=C(O)/C=C/c1ccc(S(=O)(=O)Nc2ccccc2C(=O)Nc2ccc(F)cc2)cc1,,inactive: -0.422%
OC(C1=C/C(=C\c2ccncc2)c2ccccc21)c1ccncc1 (centres undefined),,inactive: -9.54%
S=c1[nH]nc(-c2ccco2)n1/N=C/C(Cl)=C/c1ccccc1,"inconclusive: 22.4 µM [inhibitor, single point]",
CC1=NN(c2ccccc2)C(=O)C1=Cc1ccccc1,,inactive: 0.494%
O=C(CSc1nn(-c2ccccc2)c(=S)s1)Nc1ncccn1,,inactive: 1.83%
O=C(Nc1ccc(Cl)cn1)c1cccc2ccccc12,"inconclusive: 7.08 µM [inhibitor, full curve, poor fit]",
COc1ccc(-c2cc(C(=O)N/N=C/c3cccnc3)c3cc(C)cc(C)c3n2)cc1,"inconclusive: 7.08 µM [inhibitor, partial curve, poor fit]",
O=S(=O)(CCSc1nc2ccccc2o1)c1nc2ccccc2s1,"inconclusive: 25.1 µM [inhibitor, single point]",
COc1ccc(S(=O)(=O)N2CCN(Cc3ccccc3)CC2)cc1,,inactive: -1.83%
O=C(C[n+]1cc(Br)cc2ccccc21)c1ccc(F)cc1,"inconclusive: 14.1 µM [inhibitor, single point]",
O=C(c1ccc(CS(=O)c2cccc(Cl)c2)o1)N1CCN(c2ccccn2)CC1 (centres undefined),"inconclusive: 22.4 µM [inhibitor, single point]",
Nc1nc2cc(S(=O)(=O)NC3=NCCCCC3)ccc2s1,,inactive: -0.475%
COc1ccccc1-n1cnc2cc(NCc3ccco3)ccc21,"inconclusive: 1.12 µM [inhibitor, full curve]",
CCc1ccc(NC(=O)Cn2c(=O)c3cccn3c3ccccc32)cc1,"inconclusive: 25.1 µM [inhibitor, single point] and inconclusive: 22.4 µM [inhibitor, single point]",
Cc1cccn2c(=O)c3cc(C(=O)NCC4CCCO4)c(=N)n(CC4CCCO4)c3nc12 (centres undefined),,inactive: 0.867%
Clc1ccc(-c2nnc3sc(-c4ccc(Br)o4)nn23)c(Cl)c1,"inconclusive: 17.8 µM [inhibitor, single point]",
CC/C(=N/Nc1ccccc1)c1cnnc(-c2ccccc2)n1,,inactive: -5.85%
COC(=O)c1sc(N)c(C(=O)OC)c1COC(=O)c1c(C)noc1C,"inconclusive: 3.16 µM [inhibitor, full curve]",
COc1cccc2sc(Nc3nnc(-c4ccc(F)cc4)o3)nc12,"inconclusive: 35.5 µM [inhibitor, single point]",

Structure (SMILES),Potency,"activity, negative = active"
CCCCc1c(CCC)c(=N)c2ccccc2n1C,,inactive: -0.17%
COc1ccc(Nc2nc3c(S(=O)(=O)c4ccccc4)nnn3c3ccc(Cl)cc23)cc1,"inconclusive: 4.47 µM [inhibitor, single point]",
O=C1NC(=Nc2ccccc2Cl)S/C1=C\c1cc([N+](=O)[O-])ccc1O,active: 12.6 µM,
CN(C)c1ccc(/C=C/c2cc(/C=C/c3ccc(N(C)C)cc3)c3ccccc3n2)cc1,active: 2.82 µM,
CCOC(=O)c1c(C)[nH]c(C(=O)CSc2nnc(-c3cccs3)n2Cc2ccccc2)c1C,"inconclusive: 31.6 µM [inhibitor, single point]",
Cc1cccc(C)c1Nc1sc(C(=O)c2ccccc2)c(N)c1S(=O)(=O)c1ccccc1,"inconclusive: 2.82 µM [inhibitor, full curve]",
CCOc1ccc(C(NC(=O)CC)c2c(O)ccc3ccccc23)cc1 (centres undefined),"inconclusive: 10 µM [inhibitor, partial curve]",
COc1ccccc1NC(=O)/C=C/c1ccc2c(c1)OCO2,"inconclusive: 11.2 µM [inhibitor, partial curve, poor fit]",
COc1cccc(-c2cc(=O)c3cc(NC(=O)c4ccccc4)ccc3[nH]2)c1,"inconclusive: 2.24 µM [inhibitor, full curve, poor fit]",
COc1cccc2c1O/C(=N\O)C(C(=O)Nc1ccc(C)cc1)C2 (centres undefined),"inconclusive: 3.98 µM [inhibitor, full curve]",
Cc1ccc(Cn2c(C)c3cnn(CC(=O)NCc4ccccc4)c(=O)c3c2C)cc1,"inconclusive: 3.55 µM [inhibitor, full curve]",
CC(=O)Nc1sc(C)c(C)c1C(=O)OCC(=O)Nc1ccccc1,"inconclusive: 12.6 µM [inhibitor, single point]",
Cc1ccccc1OCc1nc2ccccc2c(=O)n1/N=C/c1cn[nH]c1-c1ccccc1,,inactive: -12.8%
Cc1cc(OC(C)C(=O)Nc2cccc(-c3nc4ccccc4o3)c2)cc(C)c1Cl (centres undefined),"inconclusive: 35.5 µM [inhibitor, single point]",
Cc1ccccc1NC(=O)CSc1nnc(-c2ccco2)n1N,,inactive: 1.27%
COc1ccc(C(NC=O)c2cc(OC)c(OC)cc2Br)cc1OC (centres undefined),"inconclusive: 3.16 µM [inhibitor, single point]",
NC(=O)CC(NC(=O)c1ccc(Br)cc1)c1ccc(NCc2ccc(F)cc2)c([N+](=O)[O-])c1 (centres undefined),"inconclusive: 35.5 µM [inhibitor, single point]",
O=C(CCC1CCN(Cc2ccccc2O)CC1)NC1CC1,,inactive: 0.232%
CCCCCCCCCCCCCCCC[n+]1cccc(C(=O)N(CC)CC)c1,"inconclusive: 35.5 µM [inhibitor, single point]",
Nc1nc(-c2ccccc2)cc(N2CCCCC2)n1,"inconclusive: 35.5 µM [inhibitor, single point]",
Cc1ccc(C(=O)N2C(=S)C(c3ccc(F)cc3)=NC23CCN(C)CC3)cc1,,inactive: -26.5%
C=CCOc1cccc(C(=O)/C=C2/C(=O)Nc3ccccc32)c1,"inconclusive: 11.2 µM [inhibitor, single point]",
